Read-outs that look alike come from different tables or passages of the source.
How the values were obtained:
[1] = parameters: species or system Yorkshire pigs; settings: Yorkshire, pig, in vivo
[2] = system: porcine bronchial adventitia; test: Histopathology one week after paclitaxel delivery to porcine bronchial adventitia in vivo
[3] = system: porcine bronchial adventitia; settings: pig, in vivo
in vivo [4] = settings: pig, plasma; for concentration at 7 days: other: local injection, per site
[5] = system: cancer cell lines such as H358 and H460; settings: cited from earlier work
[6] = system: bronchial adventitia of Yorkshire pigs; test: GLP 28-day study: saline or paclitaxel injected to bronchial adventitia with Blowfish catheter; tolerability and histopathology
in vivo [7] = settings: pig, bronchial tissue, other: local injection to the bronchial adventitia
[8] = 135 mg/m^2 dose administered over 24 hours; package insert; cited from earlier work
[9] = 7 days, 0.05 mg and 0.5 mg per injection site
[10] = 7 days, 2.5 mg/mL, 5 mg per injection site

SMILES: CC(=O)O[C@H]1C(=O)[C@@]2(C)[C@H]([C@H](OC(=O)c3ccccc3)[C@]3(O)C[C@H](OC(=O)[C@H](O)[C@@H](NC(=O)c4ccccc4)c4ccccc4)C(C)=C1C3(C)C)[C@]1(OC(C)=O)CO[C@@H]1C[C@@H]2O [paclitaxel]
- time out to which PTX was measured in plasma [1]: 120 h
- local adverse reactions ([2]; 2 mL at 2.5 mg/mL, 5 mg per site): local adverse reactions that could be considered dose-limiting toxicities
- epithelial loss [2, 9]: minimal
- evidence of damage [2, 9]: not associated with evidence of damage
- luminal thrombus, bronchial injury [2, 9]: no evidence of luminal thrombus bronchial injury
- lymphocytic response / inflammation [2, 9]: lymphocytic response and mild inflammation
- inflammation associated with necrosis [2, 10]: moderate
- luminal thrombus and epithelial loss [2, 10]: overall minimal
- mean bronchial injury [2, 10]: moderate
- necrosis ([2]; 7 days, highest dose 2.5 mg/mL, 5 mg per injection site): multifocal marked subacute necrosis of bronchial cartilage, peribronchial tissue and pulmonary parenchyma
- systemic toxicities [3]: no observed systemic toxicities
- drug level in bronchial adventitia (7-day study, tissue concentration data): sufficient drug in the bronchial adventitia at cancer inhibiting levels
- paclitaxel presence in bronchial tissue (after 28 days, 0.5 and 1.5 mg/mL groups): present in bronchial tissue
- time to which tissue levels are maintained at cancer-inhibiting levels (generic paclitaxel, study conclusions): 7 days
- safety of injection into the bronchial adventitia (bronchial wall; 0.5 mg/mL dose, balloon mounted injection needle): safe
- safety of injections into the bronchial wall (bronchial wall; 1.5 mg/mL dose or less): safe
- systemic or local parenchymal toxicity (bronchial wall; high local concentrations within the wall of the bronchus): no observable systemic or local parechymal toxicity
- AUC(0-t) (in vivo [4]; 0.65 mg): 18.5 ng·h/mL
- AUC(0-t) (in vivo [4]; 6.5 mg): 256 ng·h/mL
- AUC(0-t) (in vivo [4]; 25 mg): 740 ng·h/mL
- concentration at 7 days (in vivo [4]; 0.65 mg): < 0.03 ng/mL
- concentration at 7 days (in vivo [4]; 6.5 mg): < 0.03 ng/mL
- concentration at 7 days (in vivo [4]; 25 mg): 0.124 ng/mL
- concentration effective in suppressing cancer cell lines ([5]; if present for 96 hours, literature): 10 to 30 nM
- concentration effective in suppressing cancer cell lines ([5]; various studies in the literature): around 20 nM
- reaction to PTX or excipient (Cremophor EL) ([6]; 1.5 mg/mL PTX infusions): transient reaction to PTX or excipient (Cremophor EL) for a single animal
- inflammation associated with treatment ([6]; 28 days): absent to negligible
- injury (histology) ([6]; 28 days, Treated and Control groups comparable): absent to negligible
- epithelial loss ([6]; 28 days, across groups): negligible
- fibrin/luminal hemorrhage/thrombus ([6]; 28 days, across groups): absent to negligible
- local tissue reaction ([6]; 28 days, all groups): mild to negligible
- local tissue responses, microscopic evaluation ([6]; after 28 days, low (0.5 mg/mL) and high (1.5 mg/mL) PTX groups vs saline): favorable local tissue responses
- abnormalities in clinical observations, body weights, clinical pathology ([6]; both PTX groups): no other infusion or PTX related abnormalities
- concentration at 7 days (in vivo [7]; 0.5 mg/site, average paclitaxel concentration in bronchial tissue, mid dose group, […]): 86 ± 33 nM
- concentration at 7 days (in vivo [7]; 5 mg/site, average paclitaxel concentration in bronchial tissue, high dose group, […]): 94 ± 67 nM
- concentration at 7 days (in vivo [7]; 6.5 mg total paclitaxel, average paclitaxel concentration in bronchial tissue, mid dose group, […]): 86 ± 33 nM
- concentration at 7 days (in vivo [7]; 6.5 mg total paclitaxel, range of paclitaxel concentration in bronchial tissue, mid dose group): 26.7 to 122 nM
- concentration at 7 days (in vivo [7]; average paclitaxel concentration in bronchial tissue, high dose group, […]): 94 ± 67 nM
- concentration at 7 days (in vivo [7]; range of paclitaxel concentration in bronchial tissue, high dose group): 47.1 to 141 nM
- AUC(0-∞) [8]: 6,300 ng*h/mL
